Measurements published in the antibiotic and cytotoxicity screens of Wong et al. (2023).
This is one part of the list.

System: HSkMC (human skeletal muscle cells)
Assay: cytotoxicity call (relative viability < 0.9)
Conditions: 10 µM

Compound | cytotoxicity call
C[C@@H]1CCCCO[C@H](CN(C)C(=O)CCC(F)(F)F)[C@@H](C)CN([C@@H](C)CO)C(=O)c2cc(NC(=O)Cc3ccccc3)ccc2O1 | inactive
COc1ccc(NC(=O)N(C)C[C@H]2OCCCC[C@H](C)Oc3ccc(NS(=O)(=O)c4ccc(Cl)cc4)cc3C(=O)N([C@@H](C)CO)C[C@@H]2C)cc1 | inactive
CCOC(=O)CN(C#N)c1nc(C)cc(C)n1 | inactive
COc1ccc(NC(=O)Nc2ccc3c(c2)C(=O)N([C@@H](C)CO)C[C@@H](C)[C@@H](CN(C)Cc2ccc(C(F)(F)F)cc2)OCCCC[C@@H](C)O3)cc1 | inactive
NCc1cccc2nsnc12 | inactive
C[C@@H]1CN([C@H](C)CO)C(=O)c2cccc(NC(=O)Nc3ccc4c(c3)OCO4)c2O[C@@H]1CN(C)Cc1ccc(C(=O)Nc2ccccc2N)cc1 | inactive
Cc1c[nH]c2ccccc12 | inactive
O=C(C[C@H]1CC[C@@H]2[C@H](COC[C@@H](O)CN2S(=O)(=O)c2ccccc2)O1)NCCN1CCCCC1 | inactive
COCC(=O)Nc1ccc2c(c1)C(=O)N(C)[C@H]1CC[C@@H](CC(=O)N3CCc4ccccc4C3)O[C@@H]1CO2 | inactive
CN1C(=O)c2cc(NC(=O)c3cccs3)ccc2OC[C@H]2O[C@@H](CC(=O)NCCN3CCCCC3)CC[C@@H]21 | inactive
C[C@@H]1CN([C@H](C)CO)C(=O)c2cc(NC(=O)CCC(F)(F)F)ccc2O[C@@H](C)CCCCO[C@H]1CN(C)Cc1ccc(C(=O)O)cc1 | inactive
Cc1ccc(S(=O)(=O)N(C)C[C@@H]2Oc3ccc(NS(=O)(=O)c4ccccc4)cc3CC(=O)N([C@H](C)CO)C[C@H]2C)cc1 | inactive
C[C@H]1CN([C@@H](C)CO)C(=O)Cc2cc(NS(=O)(=O)c3ccccc3)ccc2O[C@@H]1CN(C)S(=O)(=O)c1cn(C)cn1 | inactive
C[C@@H]1CCCCO[C@@H](CN(C)Cc2ccc(Cl)c(Cl)c2)[C@@H](C)CN([C@H](C)CO)C(=O)c2cc(NC(=O)Nc3ccccc3)ccc2O1 | inactive
C[C@@H]1CCCCO[C@H](CN(C)S(=O)(=O)c2ccccc2)[C@@H](C)CN([C@H](C)CO)C(=O)c2cc(NC(=O)Nc3ccccc3)ccc2O1 | inactive
COc1ccc(NC(=O)Nc2ccc3c(c2)C(=O)N([C@H](C)CO)C[C@@H](C)[C@H](CN(C)Cc2ccc(Oc4ccccc4)cc2)O3)cc1 | inactive
C[C@@H]1CCCCO[C@@H](CN(C)C(=O)c2ccccc2)[C@H](C)CN([C@H](C)CO)C(=O)c2cc(NC(=O)Nc3ccc(F)cc3)ccc2O1 | inactive
C[C@H]1CN([C@@H](C)CO)C(=O)CCCn2nncc2CO[C@@H]1CN(C)C(=O)CCCN(C)C | inactive
NS(=O)(=O)c1ccccc1 | inactive
Cc1noc(C)c1S(=O)(=O)N(C)C[C@H]1OCCCC[C@@H](C)Oc2ccc(NC(=O)Nc3ccc(F)cc3)cc2C(=O)N([C@@H](C)CO)C[C@H]1C | inactive

Compound | cytotoxicity call
C[C@H](CO)N1C[C@H](C)[C@H](CN(C)S(=O)(=O)c2cn(C)cn2)Oc2ncc(-c3cccc(F)c3)cc2C1=O | inactive
Cc1noc(C)c1S(=O)(=O)Nc1ccc2c(c1)C(=O)N([C@H](C)CO)C[C@H](C)[C@H](CN(C)CC1CC1)O2 | inactive
CNC[C@@H]1Oc2ccc(NS(=O)(=O)c3cn(C)cn3)cc2CC(=O)N([C@H](C)CO)C[C@@H]1C | inactive
COc1ccc(S(=O)(=O)Nc2ccc3c(c2)CC(=O)N([C@@H](C)CO)C[C@H](C)[C@H](CN(C)S(=O)(=O)c2cccs2)O3)cc1 | inactive
C[C@H](CO)N1C[C@H](C)[C@H](CN(C)Cc2ccc(C(=O)Nc3ccccc3N)cc2)Oc2c(NC(=O)c3ccc(-c4nccs4)cc3)cccc2C1=O | inactive
C[C@@H]1CN([C@@H](C)CO)C(=O)c2cccc(NC(=O)c3ccncc3)c2O[C@@H]1CN(C)Cc1ccc(-c2ccccc2)cc1 | inactive
C[C@@H]1CN([C@@H](C)CO)C(=O)c2cc(NC(=O)NC3CCCCC3)ccc2O[C@H]1CN(C)Cc1ccc(C(F)(F)F)cc1 | inactive
CC(C)NC(=O)N(C)C[C@H]1OCCCC[C@H](C)Oc2ccc(NC(=O)C3CCCCC3)cc2C(=O)N([C@H](C)CO)C[C@H]1C | inactive
C[C@H]1CN([C@@H](C)CO)C(=O)Cc2cc(NC(=O)NC3CCCCC3)ccc2O[C@@H]1CN(C)Cc1ccc(Oc2ccccc2)cc1 | inactive
C[C@H]1CN([C@@H](C)CO)C(=O)c2cc(NC(=O)CCC(F)(F)F)ccc2O[C@H]1CN(C)Cc1ccc(Cl)c(Cl)c1 | inactive
Cc1ccc(-c2ccc3c(c2)O[C@H](CN(C)C(=O)NC(C)C)[C@H](C)CN([C@@H](C)CO)S3(=O)=O)cc1 | inactive
COc1ccc(NC(=O)Nc2ccc3c(c2)C(=O)N([C@H](C)CO)C[C@H](C)[C@H](CN(C)C(=O)Nc2ccc(C(F)(F)F)cc2)O3)cc1 | inactive
COc1ccc(NC(=O)Nc2ccc3c(c2)C(=O)N([C@@H](C)CO)C[C@@H](C)[C@H](CN(C)C(=O)Cc2ccccc2)OCCCC[C@@H](C)O3)cc1 | inactive
C[C@@H]1CN([C@H](C)CO)C(=O)CCCn2cc(nn2)CO[C@@H]1CN(C)C(=O)Nc1ccc2c(c1)OCCO2 | inactive
C[C@@H]1CN([C@@H](C)CO)C(=O)c2cccc(NS(=O)(=O)c3cccs3)c2O[C@H]1CN(C)Cc1ccc(Cl)c(Cl)c1 | inactive
C[C@@H]1CN([C@H](C)CO)C(=O)Cc2cc(NC(=O)Nc3ccc(C(F)(F)F)cc3)ccc2O[C@H]1CN(C)Cc1ccncc1 | inactive
C[C@@H]1CN([C@@H](C)CO)C(=O)c2cccc(NS(=O)(=O)c3ccccc3)c2O[C@@H]1CN(C)S(=O)(=O)c1cn(C)cn1 | inactive
Cc1ccc(S(=O)(=O)N(C)C[C@H]2Oc3ccc(NS(C)(=O)=O)cc3CC(=O)N([C@@H](C)CO)C[C@H]2C)cc1 | inactive
Cc1ccc(S(=O)(=O)Nc2ccc3c(c2)C(=O)N([C@H](C)CO)C[C@H](C)[C@@H](CN(C)C(=O)Nc2ccc4c(c2)OCO4)OCCCC[C@H](C)O3)cc1 | inactive
CCOC(=O)[C@H]1CSCCN1 | inactive
